The whole screen tested about 320,000 compounds, of which about 200 (0.062%) were called active. The inconclusive results got no clear call from the source; some entries with a clear call stand among them for comparison. Calls follow the shape of the dose curve; as a rule, active = well fitted activation curve with a large enough effect; inconclusive = small, poorly fitted or top-dose-only effect; inactive = no such curve, though single readings can be large or run the other way. No potency is given beside an inconclusive call; the fits are too rough.
Assay: qHTS assay for re-activators of p53 using a Luc reporter; also: nearly all actives have a fitted effect of over 45% in size
Settings: H1299 p53-A138V BP100-luciferase reporter, luminescence, 24 h; series mostly up to 92.2 µM
Procedure, shortened: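 H1299 (p53-null), stable ts p53-A138V + BP100-Luc; 1000 cells/well, Opti-MEM/10% FBS; cpd 4 pt, 1:5; 24 h, 37 deg C, 5% CO2; detection reagent 10 min RT; luminescence.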
Potency is read from the fitted curve at half-maximal effect; tags tell the direction and shape of the fitted curve.

Structure (SMILES) | Potency
C/C(=N/NC(=O)c1ccc2nc[nH]c2c1)c1cccs1 | inconclusive [activator, full curve, poor fit]
Oc1ccccc1C=Nc1ccccc1-c1nc2ccccc2[nH]1 | inconclusive [activator, full curve, poor fit]
Cn1nnnc1SCc1nnc(-c2ccccc2Br)o1 | inconclusive [activator, full curve, poor fit]
CCCc1cc(NC(=O)CCl)n(-c2ccccc2)n1 | inconclusive [activator, single point]
COc1ccc(C(=O)CSc2nn3c(=O)c(C(C)(C)C)nnc3s2)cc1 | inconclusive [activator, partial curve, poor fit]
Cc1nc(NC(=O)C23CC4CC(CC(C4)C2)C3)sc1Cc1ccc2c(c1)OCO2 | inconclusive [activator, partial curve, poor fit]
CCOc1ccc(S(=O)(=O)N2CCC(C(=O)NCc3ccncc3)CC2)cc1Cl | inactive
Cn1c2c(c3cc([N+](=O)[O-])ccc31)CCCC2 | inconclusive [activator, single point]
O=C(Nc1ccccc1C(=O)NCCc1ccccc1)c1ccco1 | inconclusive [activator, partial curve, poor fit]
Oc1cccc2c(NC(=S)Nc3ccc(SC(F)F)cc3)cccc12 | inconclusive [activator, partial curve, poor fit]
CCN(CC)c1ccc2c(C)c(Cl)c(=O)oc2c1 | inactive
COc1ccccc1C(=O)NCCC(=O)NCCc1ccccc1 | inactive
Cc1ccc(S(=O)(=O)n2nc(-c3ccc(Cl)cc3)nc2NCc2ccco2)cc1 | inconclusive [activator, full curve, poor fit]
Cc1ccc(C(=O)CNc2ccc(Cl)cc2)cc1 | inactive
CCOc1cccc(C=Nc2cc(C)cc(C)c2O)c1O | inconclusive [activator, partial curve, poor fit]
CCCC(=O)OCCNc1cc(Sc2nc3ccccc3[nH]2)c2nonc2c1[N+](=O)[O-] | inactive
Fc1cccc2sc(N3CCOCC3)nc12 | inconclusive [activator, partial curve, poor fit]
Cc1ccc(C2C(C#N)=C(N)Oc3c2oc(CO)cc3=O)o1 (configuration not stated) | inconclusive [activator, single point]
COc1ccc(NC(=O)Cn2nnc(C(=O)NCc3cccs3)c2N)c(OC)c1 | inactive
COC(=O)Sc1nnc(-c2ccc(Br)cc2)o1 | inactive
CN(C)S(=O)(=O)N1CCC(Oc2ccc(C(=O)NC3Cc4ccccc4C3)cc2)CC1 | inconclusive [activator, partial curve, poor fit]
C=CCc1cccc(/C=N/NC(=O)c2ccc3nc[nH]c3c2)c1O | inconclusive [activator, partial curve, poor fit]
O=C(CSc1nc(O)c(Cc2ccccc2)c(=O)[nH]1)c1ccccc1 | inconclusive [activator, single point]

Structure (SMILES) | Potency
Cc1ccccc1N1C(S)=C(C#N)C(=O)NC12CCCCC2 | inconclusive [activator, full curve]
Cc1ccc([C@@H]2CC=C(C(=O)O)[C@H](c3cccc(F)c3)N2S(=O)(=O)c2ccccc2C)cc1 | inactive
CC(C)CN1CCN(Cc2cnc(-c3ccc(Cl)cc3)nc2)CC1CCO (configuration not stated) | inactive
CN(C)C(=S)N=Nc1[nH]c2ccccc2c1O | inactive
O=C(CN1C(=O)COc2ccccc21)NCCN1CCCC1 | inactive
O=C(CSc1ncn[nH]1)Nc1nnc(-c2ccccc2)s1 | inconclusive [activator, full curve, poor fit]
COc1ccccc1OCCn1nnc2ccccc21 | inconclusive [activator, partial curve, poor fit]
O=C1N=C(N2CCCCC2)S/C1=C\c1ccccc1F | inactive
Cc1ccc(C(=O)Nc2ccc(C)c(S(=O)(=O)N(C)C)c2)s1 | inconclusive [activator, partial curve, poor fit]
COCCCNC(=S)NC(=O)c1ccc([N+](=O)[O-])cc1 | inconclusive [activator, partial curve, poor fit]
C/C(CC(=O)Nc1ccc(F)cc1)=N\NC(=O)c1ccccn1 | inconclusive [activator, full curve, poor fit]
CN(CC(=O)Nc1ccc(F)c(F)c1F)C(=O)C1CSC2(C)CCC(=O)N12 (configuration not stated) | inconclusive [activator, single point]
O=C(NC1=C(Nc2ccc(F)cc2)C(=O)c2ccccc2C1=O)c1ccc(Cl)cc1 | inconclusive [activator, single point]
CCOc1ccc2nc3sc(C(=O)N4CCN(C)CC4)c(N)c3cc2c1 | inconclusive [activator, partial curve, poor fit]
COc1ccc(/C=C/c2nc3cc(-c4ccccc4)ccc3o2)cc1O | inactive
CCCNC(=O)C(Cc1ccccc1)NC(=O)c1cccc([N+](=O)[O-])c1 (configuration not stated) | inconclusive [activator, partial curve, poor fit]
COc1cccc(OC)c1OCCN(C)C | inactive
Cc1ccc2nc(/C(C#N)=C\c3ccc(Oc4ccc(C(F)(F)F)cc4[N+](=O)[O-])cc3)[nH]c2c1 | inconclusive [activator, partial curve, poor fit]
CC(=O)Oc1ccc2occ(C(=O)c3cccs3)c2c1 | inconclusive [activator, partial curve, poor fit]
Cc1ccccc1-c1nnc(SCc2ccccc2F)o1 | inconclusive [activator, partial curve, poor fit]
O=C(c1noc2c1CCCC2)N1CCN(Cc2ccccc2)CC1 | inconclusive [activator, full curve, poor fit]
CCOC(=O)c1cccc(NC(=O)c2cncc(Br)c2)c1 | inconclusive [activator, partial curve, poor fit]
C=CC[C@H](CC(=O)N[C@H](CO)Cc1ccccc1)C(=O)N[C@@H](COC(=O)[C@@H](CC=C)Cc1ccc(F)cc1)Cc1c[nH]c2ccccc12 | inactive

Structure (SMILES) | Potency
CN(C1CCCCC1)S(=O)(=O)c1ccc(NC(=O)C2CCCCC2C(=O)O)cc1 (configuration not stated) | inactive
COc1ccccc1/C=C/C(=O)Nc1ccc2c(c1)CCC2 | inconclusive [activator, full curve, poor fit]
CCn1c(C)nc2cc(C(=O)NNC(=S)Nc3ccccc3Cl)ccc21 | inconclusive [activator, full curve, poor fit]
Cc1ccc2nc(SCC(=O)Nc3cccc(S(=O)(=O)N(C)C)c3)[nH]c2c1 | inactive
Nc1nc(N)nc(-c2ccccc2O)n1 | inconclusive [activator, single point]
CCCCOC(=O)Oc1ccc2c(=O)c(Oc3cccc(C)c3)coc2c1 | inconclusive [activator, full curve, poor fit]
CC(C)(C)c1nnc(NC(=O)COc2ccc3c(c2)OCO3)s1 | inconclusive [activator, partial curve, poor fit]
Clc1ccc(-c2csc(Nc3ccccc3)[n+]2Cc2ccco2)c(Cl)c1 | inactive
N/C(=N\OC(=O)Cc1ccc(-c2ccccc2)cc1)c1ccccn1 | inconclusive [activator, full curve, poor fit]
O=C1C(=O)N(CCN2CCOCC2)C(c2ccccn2)/C1=C(/O)c1ccccc1 (configuration not stated) | inconclusive [activator, partial curve, poor fit]
CCC(=O)Nc1ccc(N2CCC(C)CC2)cc1 | inconclusive [activator, full curve]
COCC(=O)Nc1nnc(COc2ccccc2)s1 | inconclusive [activator, partial curve, poor fit]
CCn1c(C)cc(/C=C2/SC(=S)NC2=O)c1C | inconclusive [activator, partial curve, poor fit]
N#Cc1c(Cl)nc(N/N=C/c2ccccc2)c(Cl)c1Cl | inconclusive [activator, partial curve, poor fit]
COc1ccc(/C(N)=N/OC(=O)CCCc2ccccc2)cc1 | inconclusive [activator, partial curve, poor fit]
Cc1ccc(-c2csc3n[nH]c(=S)n23)cc1 | inactive
Cn1c(=O)[nH]c(=O)c2c1nc(N1CCCC1)n2CCO | inconclusive [activator, partial curve, poor fit]
N/C(=N\OC(=O)/C=C/c1ccccc1Cl)c1cccnc1 | inconclusive [activator, full curve, poor fit]
O=C(O)c1cccc(N/N=C/c2cc(Br)cc(Br)c2O)c1 | inconclusive [activator, partial curve, poor fit]
Cc1nc(NS(=O)(=O)c2ccccc2)sc1NC(=O)OCCN(C)C | inconclusive [activator, single point]
O=C(NC1CCCC1)c1cccc(Cn2cc([N+](=O)[O-])cn2)c1 | inactive

Reference: PubChem BioAssay AID504706 (National Center for Advancing Translational Sciences (NCATS), 2011)
